Screen size: about 310,000 compounds; about 14,000 (4.5%) showed an effect of 50% or more. Effects have a minus sign here. The list shows a part of the results.
biological target: human ether-à-go-go-related gene (hERG) potassium channel (human, UniProt Q12809); experiment: primary screen, population patch clamp on CHO cells stably expressing hERG
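Further: peak tail current of the secondary pulse compared with the same well before compound.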

human ether-à-go-go-related gene (hERG) potassium channel, sequence (Q12809 whole entry, looked up): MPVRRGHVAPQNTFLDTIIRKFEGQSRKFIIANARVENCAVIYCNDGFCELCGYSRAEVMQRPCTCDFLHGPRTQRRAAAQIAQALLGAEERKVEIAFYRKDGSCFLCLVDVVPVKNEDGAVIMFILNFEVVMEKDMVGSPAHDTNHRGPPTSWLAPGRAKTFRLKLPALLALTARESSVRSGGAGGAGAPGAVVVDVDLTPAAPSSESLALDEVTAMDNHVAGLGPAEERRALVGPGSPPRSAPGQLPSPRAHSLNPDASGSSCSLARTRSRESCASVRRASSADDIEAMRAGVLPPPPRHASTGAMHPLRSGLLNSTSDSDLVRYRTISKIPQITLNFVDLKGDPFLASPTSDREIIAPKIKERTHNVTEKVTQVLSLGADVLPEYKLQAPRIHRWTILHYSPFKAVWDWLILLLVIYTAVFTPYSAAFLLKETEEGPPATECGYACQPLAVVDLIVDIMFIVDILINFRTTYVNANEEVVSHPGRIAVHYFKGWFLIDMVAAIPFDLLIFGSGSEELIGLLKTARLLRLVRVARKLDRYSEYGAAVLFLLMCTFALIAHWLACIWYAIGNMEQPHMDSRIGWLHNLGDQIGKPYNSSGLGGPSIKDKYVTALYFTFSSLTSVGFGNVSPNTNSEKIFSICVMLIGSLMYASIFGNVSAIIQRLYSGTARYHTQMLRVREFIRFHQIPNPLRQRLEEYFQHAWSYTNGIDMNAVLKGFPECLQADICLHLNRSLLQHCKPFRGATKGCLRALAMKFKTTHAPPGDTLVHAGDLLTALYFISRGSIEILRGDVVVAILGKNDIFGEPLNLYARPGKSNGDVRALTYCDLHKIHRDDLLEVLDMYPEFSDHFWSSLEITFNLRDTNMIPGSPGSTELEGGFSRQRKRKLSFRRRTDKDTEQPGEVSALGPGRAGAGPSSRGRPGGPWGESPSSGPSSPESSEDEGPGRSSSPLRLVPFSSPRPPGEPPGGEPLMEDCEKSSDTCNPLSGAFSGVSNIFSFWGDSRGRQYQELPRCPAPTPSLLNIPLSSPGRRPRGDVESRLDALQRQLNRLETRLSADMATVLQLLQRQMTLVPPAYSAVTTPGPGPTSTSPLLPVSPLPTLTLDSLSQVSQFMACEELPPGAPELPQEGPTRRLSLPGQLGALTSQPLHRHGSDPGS

Row | Structure (SMILES) | hERG current change (%, negative = inhibition) at 10uM [%]
1 | COc1ccc(N2CCN(C(=O)CN(c3ccccc3)S(C)(=O)=O)CC2)cc1 | -7.54
2 | NC(=O)C1=C[C@@H](c2ccc(Br)cc2)C[C@@H](OCCCCO)O1 | -13.8
3 | COc1cccc(N=NC2C(=O)N(C(N)=S)N=C2C)c1 (stereo not shown) | -10.3
4 | CCc1cc2c(=O)[nH]c(Cc3ccc(OC)cc3)nc2s1 | 2.16
5 | CC1Cc2cc(S(=O)(=O)N3CCC(C(=O)N4CCN(c5ccccc5F)CC4)CC3)ccc2N1C(=O)C1CC1 (stereo not shown) | -5.63
6 | O=C(NC1CCCCC1)c1cc(S(=O)(=O)N2CCOCC2)ccc1Cl | -2.86
7 | COc1ccc([C@H]2CC(=O)C=C(c3ccnc4ccc(Cl)cc34)C2)cc1 | -57.6
8 | COc1cc(CSc2nc(-c3ccccc3)cc(=O)[nH]2)cc(OC)c1 | 13.4
9 | Cc1cc2oc(=O)cc(C)c2cc1NC(=O)CCC(=O)O | 7.75
10 | CCOc1ccc2nc(NC(=O)CSc3nc4c(c(=O)n(C)c(=O)n4C)n3CC)sc2c1 | -7.71
11 | C=CCSc1nc(C)c(CCCC)c(=O)[nH]1 | -9.23
12 | O=C(CCc1nc2ccccc2c(=O)[nH]1)NNC(=O)COc1ccc(Br)cc1 | 6.48
13 | COc1cc(C(=O)N2CCN(C3CCCCC3)CC2)cc(OC)c1OC.O=C(O)C(=O)O | 2.07
14 | CC(=O)NNc1cc(=O)c2c(=O)n(C)c(=O)n(C)c2[nH]1 | 21.9
15 | O=C(COC(=O)c1cccc(S(=O)(=O)N2CCc3ccccc3C2)c1)NCc1ccco1 | -42.8
16 | Cc1[nH]nc(NNC(=O)c2ccccc2)c1[N+](=O)[O-] | 11
17 | Cc1c(C)n(CCO)c2ncnc(Nc3ccc(F)cc3)c12 | 9.16
18 | O=C(NCc1ccccn1)c1ccc(OC2CCN(Cc3ccccc3)CC2)cc1 | -10.2
19 | CC(C)Cc1cc(C(=O)N2CCN(c3ccc(F)cc3)CC2)no1 | -49.2
20 | Cc1ccc(C(=O)OCC(=O)NCCC2=CCCCC2)cc1N | 0.786
21 | Cc1ccc(S(=O)(=O)NC(CC(C)C)C(=O)NCC(c2ccco2)N2CCCCC2)cc1 (stereo not shown) | -2.3
22 | O=C(CCc1c[nH]c2ccccc12)OCc1cccc(C(F)(F)F)c1 | 11.6

Row | Structure (SMILES) | hERG current change (%, negative = inhibition) at 10uM [%]
23 | CCOc1ccc(C2/C(=C(\O)c3cccc(OC)c3)C(=O)C(=O)N2c2ccccn2)cc1OC (stereo not shown) | 11.8
24 | C[C@@]12C(=O)N(CC3CC3)CC(=O)N1[C@H](/C=C/c1ccccc1)[C@@H]1C(=O)N(c3ccccc3)C(=O)[C@@H]12 | -8.29
25 | CC1CC(C)CN(CC(=O)c2cccs2)C1 (stereo not shown) | -9.99
26 | COCCNc1ccc(-c2nn(C)c(=O)c3ccccc23)cc1[N+](=O)[O-] | 15.2
27 | O=c1c2ccccc2nc(/C=C/c2ccc([N+](=O)[O-])o2)n1CCCO | -51.7
28 | O=C(N/N=C/c1ccsc1)c1ccc2ccccc2n1 | -2.2
29 | C=CCn1c(O)c(C(=O)CCCCCC)c(=O)[nH]c1=O | 16.6
30 | C[C@@H](CSc1ccccc1)CN1CC[C@H](NC(=O)OCc2ccccc2)CCC1=O | -44.2
31 | N/C(=N\OC(=O)c1ccccc1Br)c1ccc([N+](=O)[O-])cc1 | -14.4
32 | O=C(CC1NCCNC1=O)Nc1cccc([N+](=O)[O-])c1 (stereo not shown) | 7.17
33 | Cc1ccc(OCCNC(=O)c2ccccc2SCC(=O)N2CCCC2)cc1 | 5.98
34 | O=C(CCS(=O)(=O)c1ccccc1)Nc1nnc(-c2ccco2)o1 | 14.8
35 | Cc1c(C(=O)N2CCCCC2)sc(N)c1C#N | 16.3
36 | CC(C)CCNC(=O)C1CCCN(S(=O)(=O)c2ccc(F)cc2)C1 (stereo not shown) | 6.85
37 | CC(C)(C)NC(=O)C(c1ccco1)N(C(=O)Cn1nnc(-c2ccc(F)cc2)n1)c1cccc(F)c1 (stereo not shown) | 9.99
38 | Cc1cccc(C)c1NC(=O)c1cccn(Cc2ccc3c(c2)OC(F)(F)O3)c1=O | -4.53
39 | CN1CCN(CCCCC(=O)c2ccccc2)CC1.Cl | -0.477
40 | OC1CCN(Cc2ccc3ccccc3c2)CC1 | 13.4
41 | O=C(NCc1ccco1)c1ccc(S(=O)(=O)N2CCOCC2)cc1 | 11.5
42 | COc1ccccc1NC(=O)/C(=C/c1cccc([N+](=O)[O-])c1)c1ccccc1 | -26.6
43 | CSc1ncc(CN2CCN(CCC(C)C)C(CCO)C2)cn1 (stereo not shown) | -1.45
